Holding throughout (experiment): cell count relative to DMSO control; melanoma cells; higher = more viable cells
Details in all cases: library dose: low library concentration; 72 h

The subject of experiment [1] is WM115.
Experiment [2] relates to WM1716.
Experiment [3] concerns WM1745.
The subject of experiment [4] is WM3526.
Experiment [5] deals with WM3619.
The test system of experiment [6] is WM451Lu.

The other results are listed elsewhere or left out. Repeats are few or missing, and single values can be far off.
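Note: cell number obtained by counting DAPI-stained nuclei in high-throughput microscope images with image analysis software, screen run in 1,536-well plates.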

Consider `Cc1nc(Nc2ncc(C(=O)Nc3c(C)cccc3Cl)s2)cc(N2CCN(CCO)CC2)n1` [dasatanib] + COc1cc(Nc2ncc(F)c(Nc3ccc4c(n3)NC(=O)C(C)(C)O4)n2)cc(OC)c1OC [Tamatinib] (first compound 0.004 µM, partner dose 0.4 µM), for which the cell count in experiment [1] is 73.8%; in experiment [2] it was 56.2%; in experiment [3], 50.4%; in experiment [4], 84.1%; in experiment [5], 95.6%; in experiment [6], 58%.

On to `Cc1nc(Nc2ncc(C(=O)Nc3c(C)cccc3Cl)s2)cc(N2CCN(CCO)CC2)n1` [dasatanib] + CC1(C)NC(=O)N(c2ccc([N+](=O)[O-])c(C(F)(F)F)c2)C1=O [nilutamide] (first compound 0.004 µM, partner dose 1 µM), for which the cell count in experiment [1] is 79.2%; in experiment [2], 75%; in experiment [3] it was 71%; in experiment [4], 114%; in experiment [5] it was 96.5%; in experiment [6] it was 89.9%.

Turning to `CN(C)S(=O)(=O)c1ccc2c(c1)/C(=C/c1cc3c([nH]1)CCCC3)C(=O)N2` + CN(NC(=O)CC(=O)NN(C)C(=S)c1ccccc1)C(=S)c1ccccc1 [STA4783] (first compound 0.4 µM, partner dose 0.006 µM), the cell count in experiment [1] is 65.4%; in experiment [2] it was 74.5%; in experiment [3], 26.2%; in experiment [4], 80.4%; in experiment [5], 64%; in experiment [6] it was 92.2%.

`NCC(=O)Nc1ccc(-n2nc(C(F)(F)F)cc2-c2ccc3c(ccc4ccccc43)c2)cc1` + O=C(O)C(=O)Nc1sc2c(c1C(=O)O)CCNC2 [TCS401] (first compound 1 µM, partner dose 1.66667 µM): the cell count worked out at 102% in experiment [1]; 97.6% in experiment [2]; 88.8% in experiment [3]; 56.4% in experiment [4]; 99.6% in experiment [5]; 71% in experiment [6].

With `C[C@]1(c2nc3c(C(N)=O)cccc3[nH]2)CCCN1` [Veliparib] + c1cc(-c2cnn3cc(-c4ccc(OCCN5CCCCC5)cc4)cnc23)ccn1 [Dorsomorphin] (first compound 1.4 µM, partner dose 0.4 µM), the cell count in experiment [1] was 89.1%; in experiment [2], 99.2%; in experiment [3], 82.3%; in experiment [4] it was 94%; in experiment [5], 106%; in experiment [6], 96.6%.

For the origin of these results see the supplement of paper PMC4604168 (melanoma cell lines).
